{
  "source": "the supplement of paper PMC8728848",
  "binders": {"B1": {"name": "FBG3 (Homo sapiens), Q9H4M3 (protein)", "chain": "MAVGNINELPENILLELFTHVPARQLLLNCRLVCSLWRDLIDLVTLWKRKCLREGFITEDWDQPVADWKIFYFLRSLHRNLLHNPCAEEGFEFWSLDVNGGDEWKVEDLSRDQRKEFPNDQVKKYFVTSYYTCLKSQVVDLKAEGYWEELMDTTRPDIEVKDWFAARPDCGSKYQLCVQLLSSAHAPLGTFQPDPATIQQKSDAKWREVSHTFSNYPPGVRYIWFQHGGVDTHYWAGWYGPRVTNSSITIGPPLP"}},
  "assay_in_all_cases": "glycan array binding signal (z-score within array); higher = stronger binding",
  "conditions_in_all_cases": "glycan notation: IUPAC condensed, linker removed",
  "key": {"Fuc(a1-2)Gal": {"target": "Fuc(a1-2)Gal", "outline": "(§1)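 Glycan array data were curated from 3228 arrays in the Consortium for Functional Glycomics database and kept only where the protein sequence was available. Glycan names were converted to IUPAC-condensed notation, and columns mapping to the same glycan were averaged. The binding signal is a within-array Z-score, averaged across arrays of the same protein sequence at different concentrations or buffers and across linkers. Negative Z-scores can be read as non-binding.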"}, "Fuc(a1-2)Gal(b1-3)GalNAc": {"target": "Fuc(a1-2)Gal(b1-3)GalNAc", "outline": "as §1"}, "[1]": {"target": "Fuc(a1-2)Gal(b1-3)GalNAc(b1-3)Gal", "outline": "as §1"}, "[2]": {"target": "Fuc(a1-2)Gal(b1-3)GalNAc(b1-3)Gal(a1-4)Gal(b1-4)Glc", "outline": "as §1"}, "[3]": {"target": "Fuc(a1-2)Gal(b1-3)GalNAc(b1-3)Gal(b1-4)Glc", "outline": "as §1"}, "[4]": {"target": "Fuc(a1-2)Gal(b1-3)GalNAc(b1-4)[Neu5Ac(a2-3)]Gal(b1-4)Glc", "outline": "as §1"}, "Fuc(a1-2)Gal(b1-3)GlcNAc": {"target": "Fuc(a1-2)Gal(b1-3)GlcNAc", "outline": "as §1"}, "[5]": {"target": "Fuc(a1-2)Gal(b1-3)[Fuc(a1-4)]GlcNAc", "outline": "as §1"}, "Fuc(a1-2)Gal(b1-4)Glc": {"target": "Fuc(a1-2)Gal(b1-4)Glc", "outline": "as §1"}, "Fuc(a1-2)Gal(b1-4)Glc6S": {"target": "Fuc(a1-2)Gal(b1-4)Glc6S", "outline": "as §1"}, "Fuc(a1-2)Gal(b1-4)GlcNAc": {"target": "Fuc(a1-2)Gal(b1-4)GlcNAc", "outline": "as §1"}, "[6]": {"target": "Fuc(a1-2)Gal(b1-4)GlcNAc(b1-3)Gal(b1-4)GlcNAc", "outline": "as §1"}, "[7]": {"target": "Fuc(a1-2)Gal(b1-4)GlcNAc(b1-3)Gal(b1-4)GlcNAc(b1-3)Gal(b1-4)GlcNAc", "outline": "as §1"}, "[8]": {"target": "Fuc(a1-2)Gal(b1-4)GlcNAc6S", "outline": "as §1"}, "[9]": {"target": "Fuc(a1-2)Gal(b1-4)[Fuc(a1-3)]GalNAc(b1-3)Gal(b1-4)[Fuc(a1-3)]GlcNAc", "outline": "as §1"}, "[10]": {"target": "Fuc(a1-2)Gal(b1-4)[Fuc(a1-3)]GalNAc(b1-3)Gal(b1-4)[Fuc(a1-3)]GlcNAc(b1-3)Gal(b1-4)[Fuc(a1-3)]GalNAc", "outline": "as §1"}, "[11]": {"target": "Fuc(a1-2)Gal(b1-4)[Fuc(a1-3)]GlcNAc", "outline": "as §1"}, "Fuc(a1-2)Gal6S(b1-4)Glc": {"target": "Fuc(a1-2)Gal6S(b1-4)Glc", "outline": "as §1"}, "[12]": {"target": "Fuc(a1-2)Gal6S(b1-4)Glc6S", "outline": "as §1"}, "[13]": {"target": "Fuc(a1-2)Gal6S(b1-4)GlcNAc", "outline": "as §1"}, "Fuc(a1-2)GlcNAc": {"target": "Fuc(a1-2)GlcNAc", "outline": "as §1"}, "Fuc(a1-2)[Gal(a1-3)]Gal": {"target": "Fuc(a1-2)[Gal(a1-3)]Gal", "outline": "as §1"}, "[14]": {"target": "Fuc(a1-2)[Gal(a1-3)]Gal(b1-3)GlcNAc", "outline": "as §1"}, "[15]": {"target": "Fuc(a1-2)[Gal(a1-3)]Gal(b1-4)Glc", "outline": "as §1"}, "[16]": {"target": "Fuc(a1-2)[Gal(a1-3)]Gal(b1-4)GlcNAc", "outline": "as §1"}, "[17]": {"target": "Fuc(a1-2)[Gal(a1-3)]Gal(b1-4)[Fuc(a1-3)]GlcNAc", "outline": "as §1"}, "[18]": {"target": "Fuc(a1-2)[Gal(a1-4)]Gal(b1-4)GalNAc", "outline": "as §1"}, "[19]": {"target": "Fuc(a1-2)[Gal(a1-4)]Gal(b1-4)GlcNAc", "outline": "as §1"}, "[20]": {"target": "Fuc(a1-2)[GalNAc(a1-3)]Gal", "outline": "as §1"}, "[21]": {"target": "Fuc(a1-2)[GalNAc(a1-3)]Gal(b1-3)GlcNAc", "outline": "as §1"}, "[22]": {"target": "Fuc(a1-2)[GalNAc(a1-3)]Gal(b1-4)Glc", "outline": "as §1"}, "[23]": {"target": "Fuc(a1-2)[GalNAc(a1-3)]Gal(b1-4)GlcNAc", "outline": "as §1"}, "[24]": {"target": "Fuc(a1-2)[GalNAc(a1-3)]Gal(b1-4)[Fuc(a1-3)]GlcNAc", "outline": "as §1"}, "[25]": {"target": "Fuc(a1-2)[GalNAc(a1-4)]Gal(b1-4)GlcNAc", "outline": "as §1"}, "[26]": {"target": "Fuc(a1-2)[GalNAc(b1-3)]Gal", "outline": "as §1"}, "Fuc(a1-3)GlcNAc": {"target": "Fuc(a1-3)GlcNAc", "outline": "as §1"}, "[27]": {"target": "Fuc(a1-3)[Gal(b1-4)]Glc6S", "outline": "as §1"}, "[28]": {"target": "Fuc(a1-3)[Gal(b1-4)]GlcNAc", "outline": "as §1"}, "[29]": {"target": "Fuc(a1-3)[Gal(b1-4)]GlcNAc(b1-3)Gal(b1-3)[Fuc(a1-4)]GlcNAc", "outline": "as §1"}, "[30]": {"target": "Fuc(a1-3)[Gal(b1-4)]GlcNAc(b1-3)Gal(b1-4)[Fuc(a1-3)]GlcNAc", "outline": "as §1"}, "[31]": {"target": "Fuc(a1-3)[Gal(b1-4)]GlcNAc(b1-3)Gal(b1-4)[Fuc(a1-3)]GlcNAc(b1-3)Gal(b1-4)[Fuc(a1-3)]GlcNAc", "outline": "as §1"}, "[32]": {"target": "Fuc(a1-3)[Gal(b1-4)]GlcNAc(b1-4)Gal(b1-4)[Fuc(a1-3)]GlcNAc", "outline": "as §1"}, "[33]": {"target": "Fuc(a1-3)[Gal(b1-4)]GlcNAc(b1-4)Gal(b1-4)[Fuc(a1-3)]GlcNAc(b1-4)Gal(b1-4)[Fuc(a1-3)]GlcNAc", "outline": "as §1"}, "[34]": {"target": "Fuc(a1-3)[Gal(b1-4)]GlcNAc6S", "outline": "as §1"}, "[35]": {"target": "Fuc(a1-3)[Gal3S(b1-4)]Glc", "outline": "as §1"}},
  "note": "Some of the results follow.",
  "data": [
    {"binder": "B1", "values": [
      {"measurement": "glycan array binding signal (z-score)", "setting": "Fuc(a1-2)Gal", "value": 0.149},
      {"measurement": "glycan array binding signal (z-score)", "setting": "Fuc(a1-2)Gal(b1-3)GalNAc", "value": -0.019},
      {"measurement": "glycan array binding signal (z-score)", "setting": "[1]", "value": 0.169},
      {"measurement": "glycan array binding signal (z-score)", "setting": "[2]", "value": -0.179},
      {"measurement": "glycan array binding signal (z-score)", "setting": "[3]", "value": -0.294},
      {"measurement": "glycan array binding signal (z-score)", "setting": "[4]", "value": -0.235},
      {"measurement": "glycan array binding signal (z-score)", "setting": "Fuc(a1-2)Gal(b1-3)GlcNAc", "value": 0.171},
      {"measurement": "glycan array binding signal (z-score)", "setting": "[5]", "value": -0.425},
      {"measurement": "glycan array binding signal (z-score)", "setting": "Fuc(a1-2)Gal(b1-4)Glc", "value": -0.166},
      {"measurement": "glycan array binding signal (z-score)", "setting": "Fuc(a1-2)Gal(b1-4)Glc6S", "value": 0.769},
      {"measurement": "glycan array binding signal (z-score)", "setting": "Fuc(a1-2)Gal(b1-4)GlcNAc", "value": -0.301},
      {"measurement": "glycan array binding signal (z-score)", "setting": "[6]", "value": -0.582},
      {"measurement": "glycan array binding signal (z-score)", "setting": "[7]", "value": -0.354},
      {"measurement": "glycan array binding signal (z-score)", "setting": "[8]", "value": 0.121},
      {"measurement": "glycan array binding signal (z-score)", "setting": "[9]", "value": 0.13},
      {"measurement": "glycan array binding signal (z-score)", "setting": "[10]", "value": 0.779},
      {"measurement": "glycan array binding signal (z-score)", "setting": "[11]", "value": -0.293},
      {"measurement": "glycan array binding signal (z-score)", "setting": "Fuc(a1-2)Gal6S(b1-4)Glc", "value": -0.445},
      {"measurement": "glycan array binding signal (z-score)", "setting": "[12]", "value": 0.707},
      {"measurement": "glycan array binding signal (z-score)", "setting": "[13]", "value": -0.284},
      {"measurement": "glycan array binding signal (z-score)", "setting": "Fuc(a1-2)GlcNAc", "value": -0.096},
      {"measurement": "glycan array binding signal (z-score)", "setting": "Fuc(a1-2)[Gal(a1-3)]Gal", "value": -0.078},
      {"measurement": "glycan array binding signal (z-score)", "setting": "[14]", "value": 0.051},
      {"measurement": "glycan array binding signal (z-score)", "setting": "[15]", "value": -0.093},
      {"measurement": "glycan array binding signal (z-score)", "setting": "[16]", "value": -0.057},
      {"measurement": "glycan array binding signal (z-score)", "setting": "[17]", "value": 0.034},
      {"measurement": "glycan array binding signal (z-score)", "setting": "[18]", "value": -0.342},
      {"measurement": "glycan array binding signal (z-score)", "setting": "[19]", "value": -0.72},
      {"measurement": "glycan array binding signal (z-score)", "setting": "[20]", "value": -0.31},
      {"measurement": "glycan array binding signal (z-score)", "setting": "[21]", "value": 0.389},
      {"measurement": "glycan array binding signal (z-score)", "setting": "[22]", "value": 0.043},
      {"measurement": "glycan array binding signal (z-score)", "setting": "[23]", "value": -0.26},
      {"measurement": "glycan array binding signal (z-score)", "setting": "[24]", "value": 0.422},
      {"measurement": "glycan array binding signal (z-score)", "setting": "[25]", "value": -0.319},
      {"measurement": "glycan array binding signal (z-score)", "setting": "[26]", "value": -0.651},
      {"measurement": "glycan array binding signal (z-score)", "setting": "Fuc(a1-3)GlcNAc", "value": -0.38},
      {"measurement": "glycan array binding signal (z-score)", "setting": "[27]", "value": -0.149},
      {"measurement": "glycan array binding signal (z-score)", "setting": "[28]", "value": -0.406},
      {"measurement": "glycan array binding signal (z-score)", "setting": "[29]", "value": -0.329},
      {"measurement": "glycan array binding signal (z-score)", "setting": "[30]", "value": 0.175},
      {"measurement": "glycan array binding signal (z-score)", "setting": "[31]", "value": -0.396},
      {"measurement": "glycan array binding signal (z-score)", "setting": "[32]", "value": 1.09},
      {"measurement": "glycan array binding signal (z-score)", "setting": "[33]", "value": -0.209},
      {"measurement": "glycan array binding signal (z-score)", "setting": "[34]", "value": 0.085},
      {"measurement": "glycan array binding signal (z-score)", "setting": "[35]", "value": -0.005}
    ]}
  ]
}
